Results on three molecules are retold here after PMC5008010.

Protein sequences, listed by entry. Tags and fused reporters are not part of them. Residues count along the entry.
UniProt P02545, residues 1-646: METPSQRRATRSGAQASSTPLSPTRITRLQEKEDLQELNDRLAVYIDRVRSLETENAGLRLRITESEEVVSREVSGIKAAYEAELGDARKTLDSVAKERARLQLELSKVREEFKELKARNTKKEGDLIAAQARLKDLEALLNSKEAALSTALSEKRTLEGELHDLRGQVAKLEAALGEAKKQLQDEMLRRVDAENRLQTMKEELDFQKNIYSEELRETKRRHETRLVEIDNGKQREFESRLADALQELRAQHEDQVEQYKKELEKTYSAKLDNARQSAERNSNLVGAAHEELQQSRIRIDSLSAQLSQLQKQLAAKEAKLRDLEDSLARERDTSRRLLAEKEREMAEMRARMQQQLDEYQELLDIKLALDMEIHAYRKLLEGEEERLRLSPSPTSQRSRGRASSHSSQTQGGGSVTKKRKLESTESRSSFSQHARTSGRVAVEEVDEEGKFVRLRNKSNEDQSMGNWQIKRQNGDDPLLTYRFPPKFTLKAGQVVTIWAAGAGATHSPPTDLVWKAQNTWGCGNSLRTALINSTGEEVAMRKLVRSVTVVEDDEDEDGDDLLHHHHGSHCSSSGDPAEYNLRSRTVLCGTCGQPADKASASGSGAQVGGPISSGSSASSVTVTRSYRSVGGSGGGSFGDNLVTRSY
UniProt P20700: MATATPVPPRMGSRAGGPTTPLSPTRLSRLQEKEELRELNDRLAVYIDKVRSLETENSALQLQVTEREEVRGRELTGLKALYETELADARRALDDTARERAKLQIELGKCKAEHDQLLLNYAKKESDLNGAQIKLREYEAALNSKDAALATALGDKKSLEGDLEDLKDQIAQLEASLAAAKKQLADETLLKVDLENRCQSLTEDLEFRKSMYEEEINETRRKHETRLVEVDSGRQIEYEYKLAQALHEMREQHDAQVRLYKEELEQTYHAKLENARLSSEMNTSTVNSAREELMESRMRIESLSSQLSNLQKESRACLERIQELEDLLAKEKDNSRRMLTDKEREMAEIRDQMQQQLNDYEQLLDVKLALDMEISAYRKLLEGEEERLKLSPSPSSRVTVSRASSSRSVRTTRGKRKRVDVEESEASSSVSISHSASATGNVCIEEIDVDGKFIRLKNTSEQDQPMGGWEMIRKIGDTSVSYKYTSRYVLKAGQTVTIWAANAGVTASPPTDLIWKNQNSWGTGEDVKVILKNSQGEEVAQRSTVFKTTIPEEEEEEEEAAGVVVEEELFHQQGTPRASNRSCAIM

The target in assay [1] is T1, AKTIP-GST truncation, N-terminal disordered region (aa 1-70) (UniProt Q9H8T0).
T1 sequence: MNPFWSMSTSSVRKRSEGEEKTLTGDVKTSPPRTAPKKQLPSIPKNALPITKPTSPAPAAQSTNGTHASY
The experiment in a line: pull-down; purified AKTIP-GST, AKTIP-GST truncations or GST alone used to capture proteins from 293T cell extracts; Western blotting; only the target purified. On the technique in general: Immunoblotting shows a protein as a band on a membrane.

The target in the next assay is T2, AKTIP-GST (UniProt Q9H8T0).
T2 sequence: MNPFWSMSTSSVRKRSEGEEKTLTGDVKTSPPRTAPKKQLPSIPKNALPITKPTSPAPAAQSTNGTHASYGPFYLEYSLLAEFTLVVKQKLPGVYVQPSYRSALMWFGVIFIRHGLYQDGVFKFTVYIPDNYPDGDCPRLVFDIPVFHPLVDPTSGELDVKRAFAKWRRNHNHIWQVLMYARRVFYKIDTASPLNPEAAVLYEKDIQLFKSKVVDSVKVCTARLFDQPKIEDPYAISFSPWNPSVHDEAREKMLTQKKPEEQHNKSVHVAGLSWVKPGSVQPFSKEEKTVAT
Described as above.

The target in assay [2] is T3, AKTIP-GST truncation, C-terminus consisting of 2 α-helices and a distal disordered portion (aa 190-292) (UniProt Q9H8T0).
T3 sequence: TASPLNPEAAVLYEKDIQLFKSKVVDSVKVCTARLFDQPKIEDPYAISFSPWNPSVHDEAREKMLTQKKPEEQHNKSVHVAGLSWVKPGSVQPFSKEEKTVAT
Described as above.

The target of assay [3] is T4, AKTIP-GST truncation, central region comprising the UEV portion (aa 70-189) (UniProt Q9H8T0).
T4 sequence: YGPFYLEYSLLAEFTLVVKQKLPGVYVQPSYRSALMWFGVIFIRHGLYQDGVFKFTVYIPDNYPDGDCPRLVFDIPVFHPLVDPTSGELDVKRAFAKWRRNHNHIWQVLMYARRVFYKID
The description is as above.

In assay [4] the target is T5, AKTIP-FLAG fusion protein (UniProt Q9H8T0).
T5 sequence: T2 sequence
Briefly: co-IP; anti-FLAG antibody, extracts of 293T cells expressing AKTIP-FLAG; Western blotting for lamin B1.

Results are given in words; binding and its absence hold for the method and conditions named. In cells and extracts the contact can be indirect. Some entries that bind do so weakly or less than the wild type. Where a sequence is shown, tags or fusion partners need not be part of it.

Take lamin A/C (from UniProt P02545 1-646): the binding entry is reported as “no binding” in assay [1], “binds” with AKTIP-GST, “no binding” in assay [2] and “binds” in assay [3].
For lamin B1 (from UniProt P20700 1-586), the binding result in assay [4] is “binds”; in assay [1], “no binding”; with AKTIP-GST it was “binds”; in assay [2], “no binding”; in assay [3], “binds”.

B1: matrin 3 (protein, UniProt P43243 1-847)
chain: MSKSFQQSSLSRDSQGHGRDLSAAGIGLLAAATQSLSMPASLGRMNQGTARLASLMNLGMSSSLNQQGAHSALSSASTSSHNLQSIFNIGSRGPLPLSSQHRGDADQASNILASFGLSARDLDELSRYPEDKITPENLPQILLQLKRRRTEEGPTLSYGRDGRSATREPPYRVPRDDWEEKRHFRRDSFDDRGPSLNPVLDYDHGSRSQESGYYDRMDYEDDRLRDGERCRDDSFFGETSHNYHKFDSEYERMGRGPGPLQERSLFEKKRGAPPSSNIEDFHGLLPKGYPHLCSICDLPVHSNKEWSQHINGASHSRRCQLLLEIYPEWNPDNDTGHTMGDPFMLQQSTNPAPGILGPPPPSFHLGGPAVGPRGNLGAGNGNLQGPRHMQKGRVETSRVVHIMDFQRGKNLRYQLLQLVEPFGVISNHLILNKINEAFIEMATTEDAQAAVDYYTTTPALVFGKPVRVHLSQKYKRIKKPEGKPDQKFDQKQELGRVIHLSNLPHSGYSDSAVLKLAEPYGKIKNYILMRMKSQAFIEMETREDAMAMVDHCLKKALWFQGRCVKVDLSEKYKKLVLRIPNRGIDLLKKDKSRKRSYSPDGKESPSDKKSKTDGSQKTESSTEGKEQEEKSGEDGEKDTKDDQTEQEPNMLLESEDELLVDEEEAAALLESGSSVGDETDLANLGDVASDGKKEPSDKAVKKDGSASAAAKKKLKKVDKIEELDQENEAALENGIKNEENTEPGAESSENADDPNKDTSENADGQSDENKDDYTIPDEYRIGPYQPNVPVGIDYVIPKTGFYCKLCSLFYTNEEVAKNTHCSSLPHYQKLKKFLNKLAEERRQKKET
Consider B1, for which the binding result in assay [1] was “no binding”; with AKTIP-GST, “binds”; in assay [2], “no binding”; in assay [3], “binds”.
